Laboratory results from the supplement of paper PMC4604168 (melanoma cell lines).
The other results are listed elsewhere or left out. Most values come without repeats; read them as rough.

Experiments:
Experiment in all cases: cell count relative to DMSO control; melanoma cells; higher = more viable cells
Conditions in all cases: library dose: standard library concentration; 72 h
SkMel28 = system: SkMel28
SkMel2 = system: SkMel2
SkMel30 = system: SkMel30
SkMel5 = system: SkMel5
UACC257 = system: UACC257
UACC62 = system: UACC62
WM115 = system: WM115
WM1716 = system: WM1716
WM1745 = system: WM1745
WM3526 = system: WM3526
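Further: cells treated in 1,536-well plates, then fixed and DAPI-stained, with nuclei counted from automated high-throughput microscope images.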

Row | SMILES | cell count (SkMel28) [%] | cell count (SkMel2) [%] | cell count (SkMel30) [%] | cell count (SkMel5) [%] | cell count (UACC257) [%] | cell count (UACC62) [%] | cell count (WM115) [%] | cell count (WM1716) [%] | cell count (WM1745) [%] | cell count (WM3526) [%]
1 | NCC(=O)Nc1ccc(-n2nc(C(F)(F)F)cc2-c2ccc3c(ccc4ccccc43)c2)cc1 + O=S(=O)(c1ccccc1)N(CC(F)(F)F)c1ccc(C(O)(C(F)(F)F)C(F)(F)F)cc1 [T0901317] (first compound 5 µM, partner dose 7 µM) | 3.83 | 13.2 | 10.1 | 39.6 | 69.4 | 38.5 | 64.2 | 79.6 | 49.7 | 37.2
2 | OCCn1cc(-c2cnc3nnn(Cc4ccc5ncccc5c4)c3n2)cn1 + CC(C)CCN1c2nc(Nc3cc(F)c(O)c(F)c3)ncc2N(C)C(=O)C1C [BID1870] (first compound 5 µM, partner dose 1 µM) | 73.6 | 83.6 | 77.7 | 82.2 | 91.5 | 74.5 | 131 | 87.2 | 107 | 85.6
3 | CO[C@@H]1[C@H](N(C)C(=O)c2ccccc2)C[C@H]2O[C@]1(C)n1c3ccccc3c3c4c(c5c6ccccc6n2c5c31)C(=O)NC4 [Midostaurin] + Cn1cc(/C=C2\C(=O)Nc3cccnc32)c2ccccc21 [GW441756] (first compound 0.4 µM, partner dose 2 µM) | 64.7 | 62.4 | 46.2 | 40 | 60.9 | 68.2 | 46.4 | 39.7 | 33.2 | 79.6
4 | Cc1nc(Nc2ncc(C(=O)Nc3c(C)cccc3Cl)s2)cc(N2CCN(CCO)CC2)n1 [dasatanib] + COc1ccc2c(c1)CCC1C2CCC2(C)C(NCCCCCCN3C(=O)C=CC3=O)CCC12 [U73122] (first compound 0.02 µM, partner dose 2 µM) | 68 | 83.4 | 70.8 | 53.8 | 72.9 | 82.7 | 37.7 | 30 | 33.8 | 81.8
5 | Cc1nc(Nc2ncc(C(=O)Nc3c(C)cccc3Cl)s2)cc(N2CCN(CCO)CC2)n1 [dasatanib] + COc1cc(N2CCC(N3CCN(C)CC3)CC2)ccc1Nc1ncc(Cl)c(Nc2ccccc2S(=O)(=O)C(C)C)n1 [NVP-TAE684] (first compound 0.02 µM, partner dose 0.4 µM) | 37 | 57.9 | 94.1 | 32.6 | 55.6 | 48.6 | 54.8 | 8.53 | 9.22 | 69.7
6 | NC(=O)Nc1cc(-c2cccc(F)c2)sc1C(=O)N[C@H]1CCCNC1 + CCc1ccc(CCOc2ccc(CC3SC(=O)NC3=O)cc2)nc1 [pioglitazone] (first compound 0.1 µM, partner dose 10 µM) | 18.3 | 76.6 | 71.1 | 89.7 | 93.9 | 81.9 | 92.9 | 79.3 | 61.6 | 54.7
7 | Cc1nc(Nc2ncc(C(=O)Nc3c(C)cccc3Cl)s2)cc(N2CCN(CCO)CC2)n1 [dasatanib] + O=C(Nc1ccccc1)c1cc([N+](=O)[O-])ccc1Cl [GW9662] (first compound 0.02 µM, partner dose 10 µM) | 39.3 | 70.7 | 73.6 | 73.6 | 74.8 | 92.4 | 56.2 | 45.1 | 34.6 | 81.6
8 | CO[C@@H]1[C@H](N(C)C(=O)c2ccccc2)C[C@H]2O[C@]1(C)n1c3ccccc3c3c4c(c5c6ccccc6n2c5c31)C(=O)NC4 [Midostaurin] + O=S(=O)(c1ccccc1)N(CC(F)(F)F)c1ccc(C(O)(C(F)(F)F)C(F)(F)F)cc1 [T0901317] (first compound 0.4 µM, partner dose 7 µM) | 27.3 | 35.2 | 52.4 | 53.1 | 58.5 | 45.8 | 42.1 | 29.2 | 26.5 | 54.6
9 | CN(C)S(=O)(=O)c1ccc2c(c1)/C(=C/c1cc3c([nH]1)CCCC3)C(=O)N2 + COc1ccc2c(c1)CCC1C2CCC2(C)C(NCCCCCCN3C(=O)C=CC3=O)CCC12 [U73122] (first compound 2 µM, partner dose 2 µM) | 102 | 96.6 | 63.1 | 66 | 95.1 | 69.4 | 59 | 94.1 | 71.6 | 80
10 | NC(=O)Nc1cc(-c2cccc(F)c2)sc1C(=O)N[C@H]1CCCNC1 + COc1ccc(COc2ccc(Cc3cnc(N)nc3N)cc2OC)cc1 [GW2580] (first compound 0.1 µM, partner dose 5 µM) | 32.8 | 90.2 | 50.6 | 65.1 | 83.8 | 60.8 | 73.7 | 76.8 | 59.3 | 45.6
11 | CN(C)S(=O)(=O)c1ccc2c(c1)/C(=C/c1cc3c([nH]1)CCCC3)C(=O)N2 + O=C(O)c1ccc(-c2c[nH]c3ncc(-c4ccccc4)cc23)cc1C1CCCC1 [GSK650394] (first compound 2 µM, partner dose 0.8 µM) | 44.3 | 65.4 | 77.7 | 74 | 76.2 | 74.5 | 48.3 | 50.6 | 69.6 | 73.1
